In PubChem BioAssay AID624418 (National Center for Advancing Translational Sciences (NCATS), 2012):
Screen size: about 410,000 compounds; about 530 (0.13%) were called active. The shares of active, inactive and inconclusive entries below differ from those in the screen. The call rests on the fitted dose curve; in most records, active means well fitted inhibition curve with a large enough effect; inconclusive means small, poorly fitted or top-dose-only effect, or another doubt; inactive means no such curve, though single readings can be large or run the other way. Where the call is inconclusive, the potency comes from a doubtful curve fit.

Assay: qHTS of GLP-1 Receptor Inverse Agonists: Cytotox Screen
Conditions: HEK293 cAMP-luciferase reporter cells, luminescence, 24 h; activity change, negative = inhibition: at 38.3 µM (top of the series) unless noted
Description: The overall goal of this project was to develop a novel assay for discovering small molecule ligands for class B1 G protein-coupled receptors (GPCRs). Very few agonists (or inverse agonists) with generally weak activity for this entire group of physiologically important receptors are known to date. To establish proof-of-principle that this critical bottleneck can be overcome with a suitable screening approach, our studies focused on the class B1 receptor for glucagon-like peptide-1 (GLP-1R), a potential therapeutic target for diabetes and neurodegenerative disease.
The assay was developed using a cell-based functional readout. Toward this goal, stably transfected HEK293 cell clones were established that co-express (i) a cAMP-responsive luciferase reporter gene, and (ii) constitutively active GLP-1R that upon ligand interaction inhibit (inverse agonists) the luciferase activity. In addition, two control cell lines were developed: (i) one that express only the cAMP-responsive reporter gene to enable initial exclusion of GLP-1R independent effects of candidate probes; and (ii) one with the reported gene cloned with another constitutively active orphan receptor GPR119 to enable exclusion of GLP-1R independent inhibitor effects of candidate inverse agonists.
To that end, this assay was optimized for 1536-well format and screened against the MLSMR. Then the same collection was run in this cytotoxicity assay where inhibition was the undesired outcome.
NIH Molecular Libraries Probe Production Network [MLPCN]
NIH Chemical Genomics Center [NCGC]
PI Name: Martin Beinborn, Tufts Medical Center
Six ul of cell suspension (200 cells/uL in DMEM + 10% Nu serum + 1% pen-strep) is dispensed in a white solid 1536-well plate. The plates are incubated for 12 hours at 37 deg C at 5% CO2 followed by addition of 23 nL compounds. After 24 hr incubation at 37 deg C and 5% CO2, 3 uL of luciferase assay detection reagent is added. A luminescence read is obtained on the PerkinElmer Viewlux after 12 min incubation at room temperature.
On the % scale 0 is the no-effect control and ±100 the full control effect; potency means the concentration at half of the fitted maximal effect.

Structure (SMILES)	Potency	activity change, negative = inhibition
COc1ccc(N=C2S/C(=C\c3ccc(Cl)c([N+](=O)[O-])c3)C(=O)N2CCN(C)C)cc1	active: 11.2 µM	
CN1CCC(N(C)c2nc(-c3ccc([N+](=O)[O-])cc3)nc3ccccc23)CC1	inconclusive: 25.1 µM [inhibitor, single point]	
NC(Cc1ccc(F)cc1)c1csc(Nc2ccccn2)n1 (centres undefined)	inconclusive: 11.2 µM [inhibitor, single point]	
COc1ccc(N/N=C(/C(N)=O)C2=NC(C)(C)Cc3ccccc32)cc1	inconclusive: 14.1 µM [inhibitor, partial curve, poor fit]	
Cc1ccc(OP2(=O)Nc3cc(C)c(C)cc3S2)cc1 (centres undefined)	inconclusive: 12.6 µM [inhibitor, single point]	
CC1=NNC(=O)/C1=C\c1cn(-c2ccccc2)nc1-c1ccccc1	inconclusive: 10 µM [inhibitor, partial curve, poor fit]	
O=c1[nH]c(CN2CC=C(c3ccccc3)CC2)nc2scc(-c3ccccc3)c12		inactive: -16.6%
CCN(CC)CCCNc1nc2cc(OC)c(OC)cc2c2nc(-c3ccccc3)nn12	inconclusive: 28.2 µM [inhibitor, single point]	
Cc1ccc2nc(C)cc(Nc3ccc4c(c3)OCCO4)c2c1	inconclusive: 28.2 µM [inhibitor, single point]	
CN1c2ccc([N+](=O)[O-])cc2CC2(C(=O)NC(=O)N(c3ccc(Br)cc3)C2=O)C1c1ccccc1 (centres undefined)	inconclusive: 10 µM [inhibitor, single point]	
CCCC1(CCC)C(=O)NC(=NCc2ccccc2)NC1=O	inconclusive: 28.2 µM [inhibitor, single point]	
O=C(Cn1ncc(Cl)c(Cl)c1=O)N1CCOCC1	inconclusive: 28.2 µM [inhibitor, single point]	
C=CCn1c(O)c(C(CC)=NCc2cc(OC)cc(OC)c2)c(=O)[nH]c1=O	inconclusive: 28.2 µM [inhibitor, single point]	
COc1ccc(/C=N/NC(=O)c2cccc([N+](=O)[O-])c2)cc1OC(=O)c1ccccc1	inconclusive: 28.2 µM [inhibitor, single point]	
CCOc1c(Br)cc(CNc2ccc3c(c2)OCCO3)cc1OC	inconclusive: 1 µM [inhibitor, full curve]	
Cc1ccc(N=Nc2c(=O)[nH]n3c(=O)cc(C)[nH]c23)cc1	inconclusive: 11.2 µM [inhibitor, single point]	
NNC(=O)c1ccc(OCC2CC(c3ccc(Cl)cc3)=NO2)cc1 (centres undefined)	active: 12.6 µM	
Cc1ccc(C(=O)NCCSC2CCCCC2)cc1S(=O)(=O)Nc1ccccc1	inconclusive: 10 µM [inhibitor, single point]	
O=C(CC12CC3CC(CC(C3)C1)C2)N/N=C/c1ccc([N+](=O)[O-])o1	inconclusive: 28.2 µM [inhibitor, single point]	
Cc1oc2c(c1C(=O)N1CCOCC1)C(=O)c1ccccc1C2=O	inconclusive: 11.2 µM [inhibitor, partial curve, poor fit]	

Structure (SMILES)	Potency	activity change, negative = inhibition
Cc1c(N/N=C(\C#N)C(=O)c2ccccc2)c(=O)n(-c2ccccc2)n1C	inconclusive: 12.6 µM [inhibitor, partial curve, poor fit]	
CC(=O)N1CCN(c2ccc(Nc3ncnc4c3oc3ccccc34)cc2)CC1	inconclusive: 28.2 µM [inhibitor, single point]	
CCC[C@@H](CN[C@@H](CNC)[C@H](C)CC)NCC1CCC(C(C)(C)C)CC1 (some centres undefined)	inconclusive: 20 µM [inhibitor, single point]	
Cc1[nH]c2ccc(OCc3ccccc3)cc2c1CCN	inconclusive: 17.8 µM [inhibitor, single point]	
CCC(=O)c1ccc2c(c1)N(CCCN(C)C)c1ccccc1S2	inconclusive: 22.4 µM [inhibitor, single point]	
CCCOP(=O)(OCCC)c1c([N+](=O)[O-])cc(C(F)(F)F)cc1[N+](=O)[O-]	inconclusive: 10 µM [inhibitor, single point]	
Nc1cc(Cl)nc(N/N=C/c2c(O)ccc3ccccc23)n1	inconclusive: 28.2 µM [inhibitor, single point]	
CCOc1ccc(/C=N/NC(=O)c2cc(-c3ccco3)nc3ccccc23)cc1	inconclusive: 10 µM [inhibitor, single point]	
CCC1(c2ccc(F)cc2)NC(=O)N(CC(=O)Nc2ccc(-c3nc4ccc(C)cc4s3)cc2)C1=O (centres undefined)	inconclusive: 22.4 µM [inhibitor, single point]	
CCOC(=O)C1=C(CSc2nc3ccccc3s2)NC(=O)NC1c1ccc(OC)cc1 (centres undefined)	inconclusive: 10 µM [inhibitor, partial curve, poor fit]	
CNCCc1ccc(O)c(O)c1	inconclusive: 12.6 µM [inhibitor, single point]	
CC(=O)Nc1ccc(S(=O)(=O)N2Cc3ccccc3-n3nncc3C2)cc1		inactive: -6.06%
COc1cc(CN=C(C)c2c(O)n(C3CCCCC3)c(=O)[nH]c2=O)cc(OC)c1	inconclusive: 28.2 µM [inhibitor, single point]	
COc1cc(/C=C(/C)[N+](=O)[O-])ccc1OCc1ccccc1Cl	inconclusive: 6.31 µM [inhibitor, partial curve, poor fit]	
OC(c1cccc(Cl)c1)(c1cccc(Cl)c1)C1CN2CCC1CC2 (centres undefined)	inconclusive: 28.2 µM [inhibitor, single point]	
O=c1c2ccccc2nc(/C=C/c2ccccc2O)n1-c1ccc(Br)cc1		inactive: 9.64%
CCOC(=O)C1Nc2ccc(C(F)(F)F)cc2C2c3ccccc3CC12 (centres undefined)	inconclusive: 28.2 µM [inhibitor, single point]	
C=CCOc1c(Br)cc(/C=N/n2c(CC)n[nH]c2=S)cc1Br	inconclusive: 28.2 µM [inhibitor, single point]	
COc1cc2c(cc1O)[C@@H]1Cc3ccc(OC)c(O)c3CN1CC2	inconclusive: 11.2 µM [inhibitor, partial curve, poor fit]	
